The record followed here is the supplement of paper PMC9446081.

Each structure is given as a SMILES string. The whole screen tested about 39,000 compounds, of which about 220 (0.56%) showed activity. This is one part of the list.
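Further: static incubation at 37 °C against the wild-type strain, values averaged over two biological replicates.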

In the test the test system is Escherichia coli K-12 BW25113. Kind of test: relative growth (OD600 normalised to plate interquartile mean) (fraction); higher = less growth inhibition, active = 0.2 or less. The following applies: 50 µM; LB; incubation time: overnight (16-24 h).
Take `C[C@@H]1CCCCO[C@H](CN(C)S(=O)(=O)c2ccccc2)[C@H](C)CN([C@@H](C)CO)C(=O)c2cc(NC(=O)Nc3ccc4c(c3)OCO4)ccc2O1`: the relative growth was inactive: 1.02.
Take `COc1cccc(S(=O)(=O)N(C)C[C@@H]2Oc3cc(Br)ccc3S(=O)(=O)N([C@@H](C)CO)C[C@@H]2C)c1`: the relative growth is inactive: 1.01.
In the case of `C[C@@H]1CCCCO[C@H](CN(C)CC2CCCCC2)[C@H](C)CN([C@H](C)CO)C(=O)c2cc(NC(=O)c3ccncc3)ccc2O1` it was inactive: 0.963; in that of `COCC(=O)N1C[C@@H](C)[C@H](OC)CN(C)C(=O)c2cc(NC(=O)c3ccc(OC)cc3)ccc2OC[C@@H]1C`, inactive: 0.978.
With `CC1=CC(C)(C)N(C(=O)Nc2ccc(C)cc2)c2ccccc21`, the relative growth is inactive: 0.87.
In the case of `C[C@H](CO)N1C[C@H](C)[C@@H](CN(C)S(C)(=O)=O)Oc2ccc(NS(=O)(=O)c3cccs3)cc2CC1=O`, the relative growth was inactive: 1.03.
The same measure for `C[C@H]1CN([C@@H](C)CO)C(=O)c2cc(Br)cnc2O[C@H]1CN(C)S(=O)(=O)c1cccs1`: inactive: 1.01; for `Cn1c(=O)[nH]c(=O)c2c1nc(N1CCN(CCO)CC1)n2CC(=O)c1ccccc1`: inactive: 0.982.
`O=C(C[C@H]1C=C[C@H](NC(=O)Cc2ccccn2)[C@@H](CO)O1)NCCCN1CCOCC1`: the relative growth is inactive: 0.987.
The same measure for `CC(/C=C/C(=O)NO)=C\c1ccccc1OCc1cn(C[C@@H]2CCCN2S(=O)(=O)c2ccc(C)cc2)nn1`: inactive: 0.781; for `C[C@@H]1CN([C@@H](C)CO)C(=O)CCCn2nncc2CO[C@H]1CN(C)S(=O)(=O)c1ccc(Oc2ccccc2)cc1`: inactive: 0.99; for `Cl.Cl.NCCSSCCN`: inactive: 0.928.
For the compound `C[C@H]1CN([C@@H](C)CO)C(=O)Cc2cc(NC(=O)Cn3cnnn3)ccc2O[C@@H]1CN(C)S(C)(=O)=O`, the relative growth was inactive: 1.
Turning to `COCc1cc(C)[nH]c(=O)c1C#N`, the relative growth was inactive: 0.92.
In the case of `Cc1noc(C)c1S(=O)(=O)Nc1ccc2c(c1)CC(=O)N([C@@H](C)CO)C[C@@H](C)[C@@H](CN(C)S(C)(=O)=O)O2` it was inactive: 0.976; in that of `C[C@@H]1CCCCO[C@H](CN(C)CC2CC2)[C@H](C)CN([C@H](C)CO)C(=O)c2cc(NC(=O)C3CCCCC3)ccc2O1`, inactive: 1.02.
In the case of `C[C@@H]1CN([C@H](C)CO)C(=O)c2cc(N(C)C)ccc2O[C@@H]1CN(C)S(C)(=O)=O` it was inactive: 1.02; in that of `O=C(O)CN1Cc2ccccc2C1=O`, inactive: 1.02.
As to `COc1c(O)cc(O)cc1O`, the relative growth was inactive: 0.896.
The same measure for `COC(=O)C1=C2CC[C@H](CO)NC(=O)N[C@@H](Cc3ccccc3)C(=O)NCc3cn(nn3)C[C@H](Cc3ccccc3)NC(=O)c3oc(c(C(=O)OC)c3C(=O)OC)CC[C@H](CO)NC(=O)N[C@@H](Cc3ccccc3)C(=O)NCc3cn(nn3)C[C@H](Cc3ccccc3)NC(=O)C(=C1C(=O)OC)O2`: inactive: 1.02; for `COCC(=O)N1CC[C@@H]2N(S(C)(=O)=O)CC[C@@]2(C(=O)N2CCOCC2)CC1`: inactive: 0.986.
In the case of `NCCCN` it was inactive: 0.985; in that of `C[C@@H]1CN([C@@H](C)CO)C(=O)Cc2cc(NC(=O)Nc3cccc4ccccc34)ccc2O[C@H]1CN(C)Cc1ccc2c(c1)OCO2`, inactive: 0.995; in that of `Cc1ccc(S(=O)(=O)Nc2cccc3c2O[C@H](CN(C)CC2CC2)[C@H](C)CN([C@H](C)CO)C3=O)cc1`, inactive: 0.98.
Turning to `NCc1ccccc1`, the relative growth was inactive: 0.983.
The same measure for `Cc1noc(C)c1S(=O)(=O)N(C)C[C@@H]1Oc2ccc(NS(C)(=O)=O)cc2CC(=O)N([C@@H](C)CO)C[C@@H]1C`: inactive: 0.999; for `COc1ccc(NC(=O)N(C)C[C@@H]2Oc3ccc(NC(=O)Nc4cccc5ccccc45)cc3C(=O)N([C@@H](C)CO)C[C@@H]2C)cc1`: inactive: 0.985; for `COc1ccc(S(=O)(=O)N(C)C[C@@H]2Oc3ccc(NS(=O)(=O)c4cn(C)cn4)cc3CC(=O)N([C@H](C)CO)C[C@H]2C)cc1`: inactive: 0.961.
As for `CN1CCN(C(=O)C[C@@H]2CC[C@H]3[C@@H](COc4ccc(NC(=O)C5CCOCC5)cc4C(=O)N3C)O2)CC1`, the relative growth is inactive: 1.03.
In the case of `NC[C@H]1CC[C@H](C(=O)O)CC1` it was inactive: 1.
For `C[C@H](CO)N1C[C@H](C)[C@H](CN(C)CC2CCCCC2)Oc2ccc(NS(=O)(=O)c3cn(C)cn3)cc2CC1=O`, the relative growth was inactive: 0.976.
The same measure for `COC(=O)c1sc2ccccc2c1NC(=O)c1ccc(S(=O)(=O)N2C[C@@]3(C)C[C@@H]2CC(C)(C)C3)cc1`: inactive: 1.01; for `O=C(O)CCCCCCC(=O)Nc1ccc([C@@H]2O[C@@H](CSCCO)C[C@H](c3ccccc3)O2)cc1`: inactive: 1.02.
Take `COc1ccc(S(=O)(=O)Nc2cccc3c2O[C@H](CN(C)S(=O)(=O)c2cn(C)cn2)[C@@H](C)CN([C@@H](C)CO)C3=O)cc1`: the relative growth is inactive: 1.02.
In the case of `COc1ccccc1NC(=O)N(C)C[C@@H]1Oc2cc(Br)ccc2S(=O)(=O)N([C@H](C)CO)C[C@@H]1C`, the relative growth was inactive: 1.03.
In the case of `CC(=O)[C@@]12C=CCC[C@@H]1C[C@@H](C(=O)Nc1c(C)cccc1Cl)N2C(=O)c1nc(C)oc1C(F)(F)F` it was inactive: 1.03; in that of `C[C@H](CO)N1C[C@H](C)[C@H](CN(C)C(=O)Nc2ccc3c(c2)OCO3)Oc2ncc(Br)cc2C1=O`, inactive: 0.891.
Take `O=C(C[C@H]1C[C@@H]2c3cc(NC(=O)c4ccc5c(c4)OCO5)ccc3O[C@@H]2[C@@H](CO)O1)NCC(F)(F)F`: the relative growth is inactive: 0.985.
For `CC(C)NC(=O)Nc1ccc2c(c1)C(=O)N([C@H](C)CO)C[C@H](C)[C@H](CN(C)S(=O)(=O)c1ccc(F)cc1)O2`, the relative growth is inactive: 0.998.
`C[C@@H]1CCCCO[C@@H](CN(C)C)[C@H](C)CN([C@@H](C)CO)C(=O)c2cc(NC(=O)Nc3cccc4ccccc34)ccc2O1`: the relative growth is inactive: 0.978.
In the case of `CO[C@@H]1CN(C)C(=O)c2ccc(NC(=O)c3ccccc3)cc2OC[C@@H](C)N(C(=O)CN(C)C)C[C@H]1C`, the relative growth is inactive: 0.993.
Take `C[C@H]1CN([C@@H](C)CO)C(=O)c2cc(C#CC3(O)CCCC3)cnc2O[C@@H]1CN(C)C(=O)Nc1ccc2c(c1)OCO2`: the relative growth was inactive: 0.994.
